Measured values published in PubChem BioAssay AID1454 (National Center for Advancing Translational Sciences (NCATS), 2008).
About 550 (0.42%) of roughly 130,000 compounds were called active. Inconclusive results, whose numbers are uncertain, are shown with a selection of clear calls. Calls follow the shape of the dose curve; as a rule, active = well fitted inhibition curve with a large enough effect; inconclusive = small, poorly fitted or top-dose-only effect, or effect the other way; inactive = flat fitted curve, though single readings scatter. Potencies of inconclusive entries are left out as doubtful fits.

Assay: qHTS Assay for Inhibitors of the ERK Signaling Pathway using a Homogeneous Screening Assay; Stimulation with EGF; also: nearly all actives have a fitted effect of over 55% in size
Conditions: HEK293-V1b, EGF-stimulated phospho-ERK AlphaScreen
Method in brief: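 Compounds are titrated over HEK293-V1b cells kept overnight in 1% FBS. After 30 min at 37C, EGF (25 nM final) triggers ERK phosphorylation for 5 min, measured by AlphaScreen in lysates.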
Potency is read from the fitted curve at half-maximal effect; tags tell the direction and shape of the fitted curve.

SMILES	Potency
CCCc1c(C)nc2ccccc2c1SCCC#N	inactive
Cc1ccc(Nc2c(-c3ccccc3O)nc3ncccn23)cc1	inconclusive [inhibitor, single point]
S=C(c1ccccc1)N1CCCc2ccccc21	inconclusive [inhibitor, single point]
COC(=O)c1ccc(C(NC(=O)OCc2ccccc2)/C(=C/[C@@H](C)C(=O)NCc2cc(C)n(C)n2)c2cccnc2)cc1 (stereo partly drawn)	inactive
Cn1c(=O)c(-c2cccs2)nc2cnc(Oc3ccccc3)nc21	inconclusive [activator, partial curve]
COc1ccc(CCn2c(=O)[nH]c3cc(C(=O)N4CCN(c5ccccc5)CC4)ccc3c2=O)cc1OC	inconclusive [inhibitor, partial curve]
Cc1cccc(CNc2nc(-c3c(C)noc3C)nc3ccccc23)c1	inconclusive [inhibitor, single point]
NNC(=O)c1cc2ccccc2[nH]1	inconclusive [inhibitor, single point]
c1ccc(-c2csc3ncnc(NCc4ccccn4)c23)cc1	inconclusive [inhibitor, single point]
Cc1ccc(S(=O)(=O)c2cc3ccccc3oc2=Nc2ccc3c(c2)OCCO3)cc1	inconclusive [inhibitor, partial curve]
CC(=O)c1ccc(NC(=O)Nc2ccc([N+](=O)[O-])cc2C)cc1	inconclusive [inhibitor, single point]
CC(=O)c1cccc2c(O)c(C3=Nc4ccccc4C3=O)[nH]c12	active: 25.1 µM
Cc1ccc(NC2=C(NC(=O)c3ccccc3)C(=O)c3ccccc3C2=O)cc1Cl	active: 15.8 µM
NS(=O)(=O)c1cccc(NC(=O)CN2CCc3ccccc32)c1	inconclusive [inhibitor, single point]
Cc1ccc(/C=N/Nc2nc(C(C)(C)C)cs2)o1	inconclusive [inhibitor, single point]
Cc1ccc(N2N=C(c3ccc(F)cc3)CC2c2ccco2)cc1 (stereo not drawn)	inconclusive [activator, partial curve]
CCOc1ccc(-n2c(C)c(C(=O)OC)c3cc(O)ccc32)cc1	inconclusive [inhibitor, partial curve]
N#C/C(C(N)=O)=c1/ccc2c(c1)N1C3=C(CCCC3)CC3CCCCC31N=2 (stereo not drawn)	active: 7.94 µM
COC(=O)c1sc(NC(=O)c2ccco2)c(C#N)c1C	inconclusive [inhibitor, single point]
N#CC(C#N)=C1C=CC=CN1/C(=C\c1ccccc1Cl)C(=O)c1ccccc1	inconclusive [inhibitor, single point]
Cc1cc(NCCN2CCOCC2)c2ccc3ccccc3c2n1	inactive
CCn1c(/C=C/c2ccccc2)nc2ccccc2c1=O	inconclusive [inhibitor, single point]
COCCCNc1oc(-c2cccs2)nc1S(=O)(=O)c1ccc(C)cc1	inactive

SMILES	Potency
CCCCCc1ccc(OCCOCCn2c[n+](C)c3ccccc32)c(CCCCC)c1	inconclusive [inhibitor, single point]
CC(=O)N1[C@H](Cc2ccccc2)C=C[C@]1(C)C(=O)O	inactive
CCN(CC)CCCn1c(C)cc2c(c1=O)C(c1cccc(Cl)c1)C(C#N)=C(N)O2 (stereo not drawn)	inconclusive [inhibitor, single point]
CCn1c2ccccc2c2cc(CC(N)=O)ccc21	inconclusive [inhibitor, single point]
N=C(N)N1CCN(Cc2ccccc2)CC1	inconclusive [inhibitor, single point]
COc1cccc(NC(=O)NCc2ccccc2F)c1	inconclusive [activator, full curve]
Cc1cccc(-c2noc(-c3ccc(Cl)cc3[N+](=O)[O-])n2)c1	inconclusive [inhibitor, single point]
N=c1c2c(-c3ccccc3)c(-c3ccccc3)n(Cc3ccco3)c2ncn1CCCn1ccnc1	inactive
COc1ccc(-c2cc(-c3nnc(COC(=O)C4CC4C)o3)c3ccccc3n2)cc1OC (stereo not drawn)	inconclusive [activator, partial curve, poor fit]
COc1ccc(-c2cn3c(C)c(C(=O)Nc4cccc(C)n4)sc3n2)cc1	inconclusive [inhibitor, single point]
COC(=O)CNC(=O)c1ccc(NS(=O)(=O)c2cc([N+](=O)[O-])ccc2Cl)cc1	inconclusive [activator, full curve, poor fit]
CN(C)S(=O)(=O)c1cccc(COC(=O)c2ccc3c(c2)OCO3)c1	inconclusive [inhibitor, single point]
CN1CCN(/N=C/c2ccc(N(C)c3ccccc3)cc2)CC1	inconclusive [inhibitor, partial curve]
COc1cc(C(=O)NS(=O)(=O)c2ccccc2C)ccc1Cc1cn(C)c2ccc(NC(=O)OC3CCCC3)cc12	active: 28.2 µM
O=c1c2ccccc2c2ccccc2c(=O)n1-c1ccccc1	inconclusive [activator, full curve]
Cc1cccn2c(CN(C)CCC3CCCCO3)c(C(=O)N3CCCCC3)nc12 (stereo not drawn)	inconclusive [inhibitor, single point]
Nc1c(C(=O)O)ccc2c1C(=O)c1ccccc1C2=O	inconclusive [inhibitor, single point]
Cc1c(Cl)c([N+](=O)[O-])nn1CCCC(=O)Nc1c(C)n(C)n(-c2ccccc2)c1=O	inconclusive [inhibitor, single point]
COc1ccc(C2/C=C\CN(S(=O)(=O)c3cccc4cccnc34)CC(=O)N2Cc2ccc(F)cc2)cc1 (stereo not drawn)	inconclusive [inhibitor, partial curve, poor fit]
COc1cc(/C=C(\NC(C)=O)C(=O)O)cc(OC)c1OC	inactive
COc1ccc(CC(=O)N/N=C/c2cccn2-c2ccc([N+](=O)[O-])cc2)cc1OC	inconclusive [inhibitor, single point]
CCCCC[C@H](O)/C=C/C1=C(C/C=C\CCCC(=O)O)C(=O)CC1	inactive
O=C(Nc1ccc(CSc2ccccc2)cc1)c1ccc(CN2CCOCC2)cc1	inconclusive [inhibitor, single point]

SMILES	Potency
N#CCCCS(=O)(=O)c1nc2ccccc2s1	inactive
CCOc1ccc(Cn2c3ccc(OC)cc3c3nc4ccccc4nc32)cc1OC	inconclusive [activator, single point]
COc1ccccc1CC(=O)Nc1ccc2c(c1)CCC2	inactive
C[C@@]12C(=O)OC(=O)[C@]1(C)[C@H]1CC[C@@H]2O1	inconclusive [inhibitor, single point]
COc1ccc(C(=O)/C=C/c2ccc(OC)cc2OC)c(O)c1	inconclusive [inhibitor, partial curve]
O=C(O)c1cccc(N/N=C/C2=C(Cl)c3cc(Cl)ccc3SC2)c1	inactive
CCC1=C2CC[C@H]3C(=O)N(CC(=O)OC)C(=O)[C@H]3[C@H]2[C@@]2(C)C(=NCCc3c[nH]c4ccccc34)OC(=O)N2C1=O	inactive
COc1ccc(/C=N/NC(=O)c2cccnc2)cc1COc1ccc([N+](=O)[O-])cc1	active: 22.4 µM
Cc1ccc(CN2CCN(/N=C/c3sccc3C)CC2)c(C)c1	inconclusive [inhibitor, single point]
CC(Cc1ccccc1)(NC(=O)CN)c1ccccc1 (stereo not drawn)	inconclusive [inhibitor, partial curve]
O=C(c1cc2ccccc2oc1=O)N(Cc1cccs1)CC1CCCO1 (stereo not drawn)	inconclusive [activator, full curve, poor fit]
CC(C)(C)CNc1cc(N2CCOCC2)ccc1[N+](=O)[O-]	inconclusive [inhibitor, single point]
O=[N+]([O-])c1ccc(Nc2ccc(N3CCOCC3)cc2)c([N+](=O)[O-])c1	inconclusive [inhibitor, partial curve]
COc1ccccc1OCC(=O)NNc1c2ccccc2nc2ccccc12	inconclusive [inhibitor, partial curve]
CS(=O)(=O)N1CCC2(CCN(Cc3ccncc3)CC2)CC1	inactive
Cc1ccc2ncnc(Nc3cccc(C(=O)O)c3)c2c1	inactive
CN1CCN(c2ccc(C(CC(N)=O)NC(=O)Cc3ccc(Br)cc3)cc2[N+](=O)[O-])CC1 (stereo not drawn)	inactive
CN1CCC(=O)N([C@H](CSc2ccc(Br)cc2)Cc2ccccc2)CC1	inconclusive [inhibitor, single point]
COc1ccc(OC)c(C2CC(c3ccccc3)=NN2C(=S)Nc2ccccc2)c1 (stereo not drawn)	inconclusive [inhibitor, partial curve]
CN(c1ccccc1)S(=O)(=O)c1cccc(NC(=O)CCN2C(=O)C3CCCCC3C2=O)c1 (stereo not drawn)	inconclusive [inhibitor, partial curve]
O=C(/C=C/c1cccnc1)/C=C/c1cccnc1	active: 10 µM
COC(=O)c1ccccc1S(=O)(=O)N(CCCN1CCOCC1)Cc1cccs1	inconclusive [inhibitor, full curve, poor fit]
